Test results taken from PMC6919601, “Identification of Plasmodium dipeptidyl aminopeptidase allosteric inhibitors by high throughput screening” (PLoS ONE, 2019).
Several values for one entry are separate records, joined by “and”; a condition that tells them apart may be missing. Equal entries are not always repeated. Out of some 110,000 compounds screened, about 230 (0.21%) showed an effect of 50% or more. The list shows a part of the results.

Target: DPAP1 (Plasmodium falciparum, UniProt Q8IIJ9)
Assay: primary screen, percent inhibition; read by cleavage of a fluorogenic dipeptide substrate; higher = more effect of the substance
Design: species or system P. falciparum D10 trophozoite lysates; single well
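Also: 30 min substrate incubation versus DMSO and 10 µM JCP410 controls.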

Chain of DPAP1 (Q8IIJ9 whole entry, looked up): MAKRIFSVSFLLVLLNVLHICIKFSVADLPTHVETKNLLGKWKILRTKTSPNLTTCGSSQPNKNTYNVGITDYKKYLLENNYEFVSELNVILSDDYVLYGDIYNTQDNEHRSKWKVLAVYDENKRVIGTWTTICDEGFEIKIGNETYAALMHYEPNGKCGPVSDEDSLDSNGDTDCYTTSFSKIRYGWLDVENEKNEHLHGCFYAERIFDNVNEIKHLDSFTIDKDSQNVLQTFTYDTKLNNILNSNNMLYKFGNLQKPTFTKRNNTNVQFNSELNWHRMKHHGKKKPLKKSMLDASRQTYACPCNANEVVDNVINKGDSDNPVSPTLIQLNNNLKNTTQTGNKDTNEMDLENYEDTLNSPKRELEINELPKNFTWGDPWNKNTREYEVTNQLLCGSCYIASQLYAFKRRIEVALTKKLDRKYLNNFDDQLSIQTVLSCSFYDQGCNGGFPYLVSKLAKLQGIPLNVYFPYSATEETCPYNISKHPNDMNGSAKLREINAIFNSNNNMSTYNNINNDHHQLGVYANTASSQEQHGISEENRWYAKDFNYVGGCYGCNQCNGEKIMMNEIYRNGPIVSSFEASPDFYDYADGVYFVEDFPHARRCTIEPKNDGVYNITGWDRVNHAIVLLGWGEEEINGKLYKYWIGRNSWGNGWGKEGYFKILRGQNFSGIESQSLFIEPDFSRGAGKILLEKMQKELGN

Row | SMILES | % Inhibition @ 10 uM
1 | COc1ccc(NC(=O)c2ccc(SC)cc2OC)cn1 | 1.32%
2 | CCC(=O)NCC12CC3CC(C1)CC(c1ccc(C)cc1)(C3)C2 | -6.09%
3 | COc1ccccc1CNc1nc2c(S(=O)(=O)c3ccccc3)nnn2c2ccsc12 | -7.46%
4 | Cc1ccc2[nH]c(SCC(=O)NC3CCCC3)nc2c1 | 0.215%
5 | COc1cccc2cc(-c3cn(-c4ccc(F)c(F)c4)c(S)n3)c(=O)oc12 | 0.4%
6 | CSc1nc2sc3c(c2c2nnc(S)n12)CCN(C)C3 | 6.39%
7 | OCCN(CC#CC(O)(c1ccccc1)C1CCCC1)CCO (centres unmarked) | -6.95%
8 | Cc1[nH]c2ccccc2c1C(c1ccncc1)N1CCN(C)CC1 (centres unmarked) | -0.968% and -4.12%
9 | Cn1c(SCC(=O)Nc2nccs2)nc2c(c1=O)SCC2 | 3.11%
10 | COc1ccc(OC)c(-c2sccc2CC(=O)O)c1 | -0.0735%
11 | CCc1ccccc1NC(=O)c1ccco1 | -1.92%
12 | Cc1ccc(-c2c(C)sc(NC(=O)c3ccnn3C)c2C#N)cc1 | -7.55%
13 | O=C(O)CCC(=O)Nc1cccc2cccnc12 | 3.78%
14 | O=C1c2ccccc2-c2c(-c3ccccc3)sc(=O)n21 | -4.52%
15 | FC(F)(F)c1cc(-c2cccs2)n2nc(Cc3ccccc3)c(-c3ccccc3)c2n1 | 1.4%
16 | Cc1cc(C)cc(NC(=O)c2ccc(CSc3ncnc4[nH]cnc34)cc2)c1 | -4.52%
17 | CCOc1ccc(NC(=O)C2=C(C)NC(=O)NC2c2ccc(N(C)C)cc2)cc1 (centres unmarked) | -3.5%
18 | CC(CCc1ccccc1)NC(=O)CCN1N=C(c2ccccc2)CCC1=O (centres unmarked) | -6.4%
19 | COc1cc(C(CC(=O)NCCCN2CCCC2)N2Cc3ccccc3C2=O)cc(OC)c1OC (centres unmarked) | 3.31%
20 | Cc1ccc(NC(=O)/C(=C\c2cccnc2)NC(=O)c2ccc(C)cc2)cc1 | 2%
21 | CC(C)n1cc(NC(=O)c2ccc(F)cc2)cn1 | 3.66%
22 | Cc1ccc(NC(=O)c2sc(N)nc2-c2ccc([N+](=O)[O-])cc2)c(C)c1 | 0.215%
23 | COc1ccc(S(=O)(=O)Nc2ccccc2Cl)cc1 | 5.06%
24 | N#C/C(=C\c1cccs1)c1nc(-c2ccc(-c3ccccc3)cc2)cs1 | 3.06%
25 | CCc1ccc(C(C)NC(=O)Nc2ccccc2C)cc1 (centres unmarked) | 7.04%
26 | N#CCNC(=O)[C@H](Cc1ccccc1F)NC(=O)c1ccccc1 | -1.83%

Row | SMILES | % Inhibition @ 10 uM
27 | CCCCOc1ccc(C(=O)Nc2nonc2-c2ccc(OCC)c(OCC)c2)cc1 | -1.47%
28 | CC(=O)Nc1ccc(C2Nc3ccccc3-c3cc(C)nn32)cc1 (centres unmarked) | -4.75%
29 | O=C(Nc1cccc2c(NC(=O)C3CC3c3ccccc3)cccc12)C1CC1c1ccccc1 (centres unmarked) | -4.35%
30 | CC1=CC(C)C(CNCCCN(C)C)C(C)C1 (centres unmarked) | 0.162%
31 | O=C(O)CCS(=O)(=O)c1ccc(Br)cc1 | 6.33%
32 | CCCCCn1c(=O)c(C(=O)Nc2ccccc2N)c(O)c2ccccc21 | 5.66%
33 | Cc1cc(C)c2c(N)c(C#N)sc2n1 | 4.12%
34 | CN1CCN(CCCNC(=O)C2CCC(CNc3nc(S)nc4ccccc34)CC2)CC1 (centres unmarked) | 12.1%
35 | COc1ccc(C2C(C#N)=C(N)OC3=C2C(=O)CCC3)cc1OC (centres unmarked) | -0.99%
36 | CNC(=O)CSc1cn(CC(=O)N2CCCC2)c2ccccc12 | 0.568%
37 | COC(=O)C1=C(C)OC(N)=C(C#N)C1c1ccc(Cl)c(Cl)c1 (centres unmarked) | -6.78%
38 | O=C(CCN1C(=O)c2ccccc2C1=O)Nc1nc(-c2ccccc2)cs1 | 3.86%
39 | COc1ccc(OC)c(NC(=O)c2c(Br)cnn2C)c1 | 19%
40 | CCCCSC1=C(C#N)C(=O)NC(c2ccccc2O)S1 (centres unmarked) | 0.0289%
41 | Cn1c(=O)c2c(nc(SCC(=O)NC(C)(C)C)n2C)n(C)c1=O | 3.99%
42 | O=C1C2CCCN2C(=O)N1CCN1CCN(c2cccc(Cl)c2)CC1 (centres unmarked) | -0.0619%
43 | Cc1ccc(C2=NN(C(=O)C3CCCO3)C(c3ccccc3F)C2)cc1 (centres unmarked) | 3.01%
44 | CC(NC(=O)c1cc2ccccc2oc1=O)c1ccccc1 (centres unmarked) | 1.25%
45 | Cc1ccc2c(c1)[C@@H]1CN(C)CC[C@@H]1N2C(=O)CCCN1C(=O)c2ccccc2C1=O | 3.57%
46 | Cc1ccc(NC(=O)C2C(=O)N(C)c3ccccc32)cc1 (centres unmarked) | 40.2%
47 | COC(=O)c1sccc1NC(=S)N1CCCC(C)C1 (centres unmarked) | -5.77%
48 | COC(=O)c1ccc(Cn2nc(-c3ccccc3)ccc2=O)cc1 | 2.41%
49 | CCS(=O)(=O)c1nc(S(=O)(=O)c2ccc(Cl)cc2)c(N2CCOCC2)s1 | -2.25%
50 | CCOc1ccc(C(=O)NCCCN(C)C)cc1 | -4.75%
51 | CCOc1ccc(N(C(C)C(=O)N2CCN(C)CC2)S(C)(=O)=O)cc1 (centres unmarked) | -0.992%
52 | O=C(Nc1ccc(N2CCOCC2)cc1)c1ccccc1 | 0.431%

Row | SMILES | % Inhibition @ 10 uM
53 | CCCC1=NN(C(=O)c2cccc(OC)c2)C(O)(C(F)(F)F)C1 (centres unmarked) | 8.75%
54 | CSC1=N/C(=C\c2cn(C)c3ccccc23)C(=O)N1C | 0.76%
55 | Cc1cc(C(=O)N2CCN(c3cccc(C)c3C)CC2)ccc1[N+](=O)[O-] | -4.03%
56 | O=C(c1cccc(Cl)c1)N1CCN(c2cccc(Cl)c2)CC1 | -3.74%
57 | Cn1c(=O)n(C)c2cc(NC(=O)c3cccs3)ccc21 | -2.67%
58 | CCn1c2ccccc2c2cc(CN(C)CC(O)c3ccccc3)ccc21 (centres unmarked) | -7.18%
59 | O=C1C2CC=C(Cl)CC2C(=O)N1c1ccc(O)cc1 (centres unmarked) | 1%
60 | OC(CN1CCOCC1)c1ccc(C2CCCC2)cc1 (centres unmarked) | -5.07%
61 | COc1cc2c(C(=O)N3CCCCC3C)cn(C)c(=O)c2cc1OC (centres unmarked) | -0.228%
62 | Cc1ccc(C2=NN3C(C2)c2ccccc2OC3c2ccc(O)cc2)cc1 (centres unmarked) | 19.8%
63 | NC(=O)C1CCN(C(=O)c2cnn(-c3ccccc3)c2-n2cccc2)CC1 | 0.137%
64 | COc1cccc(-n2ccc(OC)c2SC)c1 | 3.8%
65 | Cc1ccc(-c2cc(C(=O)NC3=NCCS3)c3ccccc3n2)s1 | 6.7%
66 | Cc1cc(C)nc(N2C(=O)CC(C(=O)O)N=C2NCCc2c[nH]c3ccccc23)n1 (centres unmarked) | 7.95%
67 | COC(=O)C1=C(C)N(CC(C)C)C(=O)/C1=C\c1ccc(OCc2ccccc2)cc1 | 0.131%
68 | O=C(O)C1C(C(=O)O)C2C=CC1C21CC1 (centres unmarked) | -0.0217%
69 | O=C1N=C(N2CCN(c3ccccc3)CC2)S/C1=C\c1ccccc1O | 34.9%
70 | Cc1cc2c(Cc3ccccc3)nnc(O)c2c(O)n1 | 1.08%
71 | CC(NC(=O)C1CCN(c2nnc(N3CCCC3=O)s2)CC1)c1ccc2c(c1)OCCO2 (centres unmarked) | 5.42%
72 | COCCCNC(=O)C1CCN(S(=O)(=O)N2CCOCC2)CC1 | 0.718%
73 | CSc1ccc(-c2nc(CSCC(=O)N(C)CCC#N)c(C)o2)cc1 | 5.56%
74 | O=C(NCc1cccn1Cc1ccccc1)NCC1CCCO1 (centres unmarked) | 2.98%
75 | COc1cccc(C2C(C#N)=C(N)Oc3nc(C)nc(O)c32)c1OC (centres unmarked) | 2.22%
76 | CCN1CCc2c(sc(NC(=O)c3ccc(S(=O)(=O)N(CC)CC)cc3)c2C(=O)OC)C1 | -4%
77 | COc1ccc(Cl)c(Cn2c(NCCCO)nc3c2c(=O)n(C)c(=O)n3C)c1 | 5.06%
78 | Cc1ccc2c(c1)-c1onc(C(=O)NCCCN(Cc3ccco3)C3CCCC3)c1CO2 | -2.87%

Row | SMILES | % Inhibition @ 10 uM
79 | CCN(CC)c1ccc(Nc2nc(-c3sc(C)nc3C)cs2)cc1 | 1%
80 | CCN1C=CC(=Cc2ccc3cc(C)ccc3[n+]2C)C=C1 | -3.75%
81 | CCOc1ccc(S(=O)(=O)Nc2cccnc2O)cc1 | -5.17%
82 | COc1ccc(CCN2C(=O)NC(NC(=O)CC(C)C)(C(F)(F)F)C2=O)cc1OC (centres unmarked) | 3.54%
83 | CC(C)N(CCNC(=O)[C@H](Cc1cc(I)c(O)c(I)c1)NC(=O)c1ccc(-c2csc(Nc3ccncc3)n2)cc1)C(C)C | 3.1% and 4.63%
84 | Cc1ccc(C)n1-c1nnc(N2CCC(C(=O)NCCC3=CCCCC3)CC2)s1 | 4.33%
85 | CCCCN(C)C(=O)CCNS(=O)(=O)c1ccc(Br)cc1 | 1.42%
86 | NC(=O)c1ccc(-n2nnnc2-n2ccnc2)cc1 | 2.77%
87 | Cc1cc(Oc2nc3ccccn3c(=O)c2/C=C(\C#N)C(=O)N2CCOCC2)ccc1Cl | -8.55%
88 | CCN1CCN(Cc2cc(Br)cs2)CC1 | -0.0404%
89 | COc1ccc(COC(=O)C2=C(C)NC(=O)CC2c2ccccc2C(F)(F)F)cc1 (centres unmarked) | -1.62%
90 | O=C(CCc1nnc2ccc(N3CCOCC3)nn12)NC1CCN(Cc2ccccc2)CC1 | -7.74%
91 | COC(=O)c1cc2nc(-c3ccccc3)cc(C(F)(F)F)n2n1 | -2.36%
92 | O=C(CCc1nc(-c2ccc(Cl)cc2)no1)NCC1CCCO1 (centres unmarked) | 0.366%
93 | COc1ccc(C2C=C(c3ccccc3OC(F)F)Nc3nnnn32)cc1 (centres unmarked) | -6.93%
94 | COc1cc(CN2CCN(Cc3ccccc3Cl)CC2)cc(OC)c1 | -3.03%
95 | CCC(C)(C)NC(=O)CN(C)S(=O)(=O)c1cccc2cccnc12 | -0.692%
96 | O=S(=O)(NC1CCCCC1N1CC=C(c2ccccc2)CC1)c1ccccc1 (centres unmarked) | -0.671%
97 | Cc1cccc(CCNC(=O)C2c3ccccc3C(=O)N(C)C2c2cn(C)c3ccccc23)c1 (centres unmarked) | -1.92%
98 | CN1CCN(CCCNC(=O)CCCn2nc(-c3ccccc3)c3ccccc32)CC1 | -4.85%
99 | CC(=O)Nc1cccnc1NC(C)=O | -1.03%
100 | N#Cc1cnn2c(O)c3c(nc12)CCCC3 | 1.52%
101 | O=C1c2cccc3c(O)ccc(c23)C(=O)N1Cc1ccccc1 | -1.35%
